Consider seven molecules from paper PMC3379983.

By UniProt entry, the sequences of proteins in these tests, tags left out. Where a name states a change or a piece, a line headed by the entry shows the natural chain unless it says otherwise. Residues count along the entry.
UniProt P46935: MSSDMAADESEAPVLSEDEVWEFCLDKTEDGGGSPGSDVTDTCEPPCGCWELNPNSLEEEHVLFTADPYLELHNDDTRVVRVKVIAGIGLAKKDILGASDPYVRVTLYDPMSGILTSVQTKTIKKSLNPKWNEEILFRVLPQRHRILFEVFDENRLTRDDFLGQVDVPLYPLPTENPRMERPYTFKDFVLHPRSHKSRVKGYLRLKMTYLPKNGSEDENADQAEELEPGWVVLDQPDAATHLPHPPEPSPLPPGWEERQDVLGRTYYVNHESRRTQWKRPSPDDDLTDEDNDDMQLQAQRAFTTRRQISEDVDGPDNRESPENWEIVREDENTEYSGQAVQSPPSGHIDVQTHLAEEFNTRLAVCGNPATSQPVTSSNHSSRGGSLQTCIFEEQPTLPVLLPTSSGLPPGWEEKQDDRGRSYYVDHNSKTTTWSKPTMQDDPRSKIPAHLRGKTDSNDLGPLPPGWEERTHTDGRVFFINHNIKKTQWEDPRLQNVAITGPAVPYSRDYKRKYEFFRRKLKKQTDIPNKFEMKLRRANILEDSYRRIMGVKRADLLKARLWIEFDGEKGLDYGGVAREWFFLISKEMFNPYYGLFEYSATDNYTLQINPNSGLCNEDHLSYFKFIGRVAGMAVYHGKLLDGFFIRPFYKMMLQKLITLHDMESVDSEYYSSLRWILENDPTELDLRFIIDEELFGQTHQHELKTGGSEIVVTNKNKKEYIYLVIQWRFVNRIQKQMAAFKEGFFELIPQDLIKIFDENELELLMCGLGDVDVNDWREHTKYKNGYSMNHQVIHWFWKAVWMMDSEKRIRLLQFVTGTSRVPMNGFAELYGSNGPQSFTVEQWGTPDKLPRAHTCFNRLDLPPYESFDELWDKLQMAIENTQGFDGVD
GST-Nedd4 fusion protein (Nedd4 aa 34-887): residues 34-887 of P46935
UniProt Q62940: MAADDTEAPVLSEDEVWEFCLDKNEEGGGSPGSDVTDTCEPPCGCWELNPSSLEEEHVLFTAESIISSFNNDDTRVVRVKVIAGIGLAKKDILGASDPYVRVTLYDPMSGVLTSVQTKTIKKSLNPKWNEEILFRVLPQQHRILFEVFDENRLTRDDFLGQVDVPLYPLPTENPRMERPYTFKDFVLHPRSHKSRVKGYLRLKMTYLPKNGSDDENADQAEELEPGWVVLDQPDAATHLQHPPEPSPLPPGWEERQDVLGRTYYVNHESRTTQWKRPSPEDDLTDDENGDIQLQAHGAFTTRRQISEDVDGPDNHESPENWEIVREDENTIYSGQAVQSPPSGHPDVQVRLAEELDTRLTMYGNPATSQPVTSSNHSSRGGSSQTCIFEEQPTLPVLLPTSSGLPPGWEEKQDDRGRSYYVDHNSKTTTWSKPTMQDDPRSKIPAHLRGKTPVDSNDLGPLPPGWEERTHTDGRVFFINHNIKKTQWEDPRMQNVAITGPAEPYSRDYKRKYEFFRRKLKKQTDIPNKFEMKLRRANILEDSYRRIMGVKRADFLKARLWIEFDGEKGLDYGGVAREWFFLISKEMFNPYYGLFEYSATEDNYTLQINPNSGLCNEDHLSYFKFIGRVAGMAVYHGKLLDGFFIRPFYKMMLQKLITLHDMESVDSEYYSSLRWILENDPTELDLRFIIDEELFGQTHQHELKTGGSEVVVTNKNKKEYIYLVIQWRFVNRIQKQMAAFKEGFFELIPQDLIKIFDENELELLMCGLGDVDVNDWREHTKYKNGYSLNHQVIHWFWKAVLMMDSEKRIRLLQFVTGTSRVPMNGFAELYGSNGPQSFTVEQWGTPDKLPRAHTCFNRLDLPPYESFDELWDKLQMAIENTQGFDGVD

Assay [1] deals with T1, GAL4BD fused to mouse MAK-V protein (aa 26-714; pPC97-MAK-V) (mouse) (UniProt O88866).
T1 sequence: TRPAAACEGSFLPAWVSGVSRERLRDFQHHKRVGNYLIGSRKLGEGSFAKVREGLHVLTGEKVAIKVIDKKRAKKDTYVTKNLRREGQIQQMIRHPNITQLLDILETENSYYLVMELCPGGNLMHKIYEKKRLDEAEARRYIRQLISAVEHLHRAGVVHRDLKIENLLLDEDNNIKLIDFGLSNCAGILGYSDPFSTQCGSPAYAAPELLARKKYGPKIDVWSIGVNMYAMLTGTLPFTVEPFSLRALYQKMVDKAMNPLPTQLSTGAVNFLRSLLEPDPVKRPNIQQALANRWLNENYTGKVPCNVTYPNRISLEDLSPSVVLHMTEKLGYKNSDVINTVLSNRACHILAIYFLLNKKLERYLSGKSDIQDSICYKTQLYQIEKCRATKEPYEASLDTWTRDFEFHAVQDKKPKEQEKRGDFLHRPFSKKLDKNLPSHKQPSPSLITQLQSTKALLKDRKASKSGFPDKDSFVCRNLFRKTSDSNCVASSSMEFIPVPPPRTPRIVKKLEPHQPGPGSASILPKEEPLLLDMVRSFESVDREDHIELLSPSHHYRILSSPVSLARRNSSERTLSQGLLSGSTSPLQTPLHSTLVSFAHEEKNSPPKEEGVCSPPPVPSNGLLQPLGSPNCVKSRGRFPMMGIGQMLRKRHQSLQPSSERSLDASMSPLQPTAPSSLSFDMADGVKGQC
Description: two-hybrid; yeast, GAL4BD and GAL4AD chimeras, HIS3 reporter, growth on minimal medium with 60 mM 3AT.

In assay [2] the target is T2, GAL4BD fused to the N-terminal part of mouse MAK-V (aa 26-394; pPC97-N-MAK-V) (mouse) (UniProt O88866).
T2 sequence: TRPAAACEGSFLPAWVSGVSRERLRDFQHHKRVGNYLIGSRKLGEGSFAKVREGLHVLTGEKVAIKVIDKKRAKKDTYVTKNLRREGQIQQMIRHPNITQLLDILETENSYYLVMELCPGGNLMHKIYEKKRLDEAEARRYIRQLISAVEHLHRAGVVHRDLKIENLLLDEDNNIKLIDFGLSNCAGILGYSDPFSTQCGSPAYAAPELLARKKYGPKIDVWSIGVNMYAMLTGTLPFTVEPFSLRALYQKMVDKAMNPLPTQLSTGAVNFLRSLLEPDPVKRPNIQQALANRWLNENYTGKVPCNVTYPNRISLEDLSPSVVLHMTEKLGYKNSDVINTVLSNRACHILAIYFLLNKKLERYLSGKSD
Described as above.

For assay [3], the target named is T3, GAL4BD fused to the C-terminal portion of mouse MAK-V (aa 395-714; pPC97-C-MAK-V) (mouse) (UniProt O88866).
T3 sequence: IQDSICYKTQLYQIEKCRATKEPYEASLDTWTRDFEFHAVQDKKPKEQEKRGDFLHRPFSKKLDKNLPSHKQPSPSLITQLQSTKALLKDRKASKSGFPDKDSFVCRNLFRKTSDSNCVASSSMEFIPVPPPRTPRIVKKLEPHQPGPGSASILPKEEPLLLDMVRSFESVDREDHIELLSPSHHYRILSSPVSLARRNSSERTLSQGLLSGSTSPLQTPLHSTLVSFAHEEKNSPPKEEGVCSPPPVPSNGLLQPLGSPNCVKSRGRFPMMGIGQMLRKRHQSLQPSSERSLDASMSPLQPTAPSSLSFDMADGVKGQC
Described as above.

Assay [4] addresses T4, endogenous MAK-V protein (CSML-0 cells) (mouse (endogenous in CSML-0)) (UniProt O88866).
T4 sequence: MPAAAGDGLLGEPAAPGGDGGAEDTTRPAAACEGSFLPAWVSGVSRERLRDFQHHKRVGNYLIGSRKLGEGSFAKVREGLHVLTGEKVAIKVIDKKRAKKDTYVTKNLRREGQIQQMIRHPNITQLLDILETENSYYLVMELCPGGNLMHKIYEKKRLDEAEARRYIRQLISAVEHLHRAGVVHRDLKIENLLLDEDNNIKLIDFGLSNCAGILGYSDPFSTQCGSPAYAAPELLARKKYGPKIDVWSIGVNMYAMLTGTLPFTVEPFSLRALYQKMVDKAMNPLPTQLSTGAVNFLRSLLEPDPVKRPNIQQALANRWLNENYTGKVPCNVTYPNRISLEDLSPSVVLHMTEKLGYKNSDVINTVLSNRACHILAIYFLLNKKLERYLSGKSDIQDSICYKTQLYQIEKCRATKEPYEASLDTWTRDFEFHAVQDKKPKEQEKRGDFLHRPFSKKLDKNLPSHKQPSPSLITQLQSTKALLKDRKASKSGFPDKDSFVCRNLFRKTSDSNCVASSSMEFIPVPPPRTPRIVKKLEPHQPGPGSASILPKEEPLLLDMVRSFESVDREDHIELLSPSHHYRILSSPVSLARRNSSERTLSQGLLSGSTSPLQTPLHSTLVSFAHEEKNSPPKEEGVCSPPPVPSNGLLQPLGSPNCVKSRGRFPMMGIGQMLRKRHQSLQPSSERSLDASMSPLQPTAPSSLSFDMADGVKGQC
Briefly: co-IP; CSML-0 lysate, endogenous proteins, anti-Nedd4 or anti-MAK-V antibodies overnight at 4°C, Protein G Sepharose; control with antibodies omitted.

Assay [5] deals with T5, MAK-V-FLAG protein (C-terminally FLAG-tagged mouse MAK-V protein kinase) (mouse) (UniProt O88866).
T5 sequence: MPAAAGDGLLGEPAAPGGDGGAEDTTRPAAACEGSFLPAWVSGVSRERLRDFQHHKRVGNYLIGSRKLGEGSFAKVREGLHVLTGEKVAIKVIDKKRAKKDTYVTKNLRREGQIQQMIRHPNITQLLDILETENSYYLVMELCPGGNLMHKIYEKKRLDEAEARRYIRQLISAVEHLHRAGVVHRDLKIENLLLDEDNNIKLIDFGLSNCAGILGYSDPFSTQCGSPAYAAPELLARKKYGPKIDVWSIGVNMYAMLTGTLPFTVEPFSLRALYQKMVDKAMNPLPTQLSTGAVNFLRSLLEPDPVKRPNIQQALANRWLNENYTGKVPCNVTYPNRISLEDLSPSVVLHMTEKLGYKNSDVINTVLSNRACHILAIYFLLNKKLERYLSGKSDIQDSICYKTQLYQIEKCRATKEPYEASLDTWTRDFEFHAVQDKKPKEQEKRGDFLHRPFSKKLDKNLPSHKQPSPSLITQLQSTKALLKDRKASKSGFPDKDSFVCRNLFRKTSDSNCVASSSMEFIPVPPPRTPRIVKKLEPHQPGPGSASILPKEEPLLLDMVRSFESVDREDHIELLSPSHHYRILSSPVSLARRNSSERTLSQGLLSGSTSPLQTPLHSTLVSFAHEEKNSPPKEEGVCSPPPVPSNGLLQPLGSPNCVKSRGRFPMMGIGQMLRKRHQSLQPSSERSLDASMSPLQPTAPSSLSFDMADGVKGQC
Description: co-IP; anti-FLAG M2 affinity gel precipitates from PC12TetOn lysates (induced and non-induced), blotted with anti-Nedd4 antibodies.

Assay [6] addresses GST-Nedd4 fusion protein (Nedd4 aa 34-887) (mouse) (UniProt P46935). Briefly: pull-down; GST or GST-Nedd4 (30 µg) immobilised on glutathione Sepharose, incubated 2 hrs at 4°C with 50 µl of MAK-V-FLAG expressing cell lysate; anti-FLAG blot; only the target purified.
In assay [7] the target is rat E3 ubiquitin ligase Nedd4 (endogenous in PC12TetOn cells) (rat) (UniProt Q62940). Briefly: co-IP; lysate of doxycycline-treated PC12TetOn cells on Protein G Sepharose with immobilized anti-Nedd4 antibodies or without antibodies, blotted with anti-FLAG antibodies.
Assay [8] concerns the target endogenous Nedd4 protein (CSML-0 cells) (mouse (endogenous in CSML-0)) (UniProt P46935). Briefly: co-IP; CSML-0 lysate, endogenous proteins, anti-Nedd4 or anti-MAK-V antibodies overnight at 4°C, Protein G Sepharose; control with antibodies omitted.

No constants are given. Whether binding was seen depends on the method and setting. For part of these data: In cells and extracts the contact can be indirect. Some entries that bind do so weakly or less than the wild type. For part of these data: Where a sequence is shown, tags or fusion partners need not be part of it.

Turning to “GAL4AD fused to Nedd4 aa 34-295 containing C2 and WW1 domains (pPC86-C2-WW1) (from UniProt P46935 34-295) (domain or fragment)”, the binding result in assay [1] is given as “binds”. As to “GAL4AD fused to Nedd4 aa 34-493 containing C2 and all three WW domains (pPC86-C2-WW1-3) (from UniProt P46935 34-493) (domain or fragment)”, the binding entry in assay [2] is reported as “binds”; in assay [3] it was “no binding”. For the molecule “GAL4AD fused to Nedd4 aa 220-493 containing only three WW domains (pPC86-WW1-3) (from UniProt P46935 220-493) (domain or fragment)”, in assay [1], the binding result is reported as “no binding”. Consider “endogenous Nedd4 protein (CSML-0 cells) (from UniProt P46935 1-887) (enzyme)”, for which the binding entry in assay [4] is given as “binds”. As to “rat E3 ubiquitin ligase Nedd4 (endogenous in PC12TetOn cells) (from UniProt Q62940 1-887) (enzyme)”, the binding result in assay [5] is “binds”.

B1: MAK-V-FLAG protein (C-terminally FLAG-tagged mouse MAK-V protein kinase) (enzyme, UniProt O88866 1-714)
chain: MPAAAGDGLLGEPAAPGGDGGAEDTTRPAAACEGSFLPAWVSGVSRERLRDFQHHKRVGNYLIGSRKLGEGSFAKVREGLHVLTGEKVAIKVIDKKRAKKDTYVTKNLRREGQIQQMIRHPNITQLLDILETENSYYLVMELCPGGNLMHKIYEKKRLDEAEARRYIRQLISAVEHLHRAGVVHRDLKIENLLLDEDNNIKLIDFGLSNCAGILGYSDPFSTQCGSPAYAAPELLARKKYGPKIDVWSIGVNMYAMLTGTLPFTVEPFSLRALYQKMVDKAMNPLPTQLSTGAVNFLRSLLEPDPVKRPNIQQALANRWLNENYTGKVPCNVTYPNRISLEDLSPSVVLHMTEKLGYKNSDVINTVLSNRACHILAIYFLLNKKLERYLSGKSDIQDSICYKTQLYQIEKCRATKEPYEASLDTWTRDFEFHAVQDKKPKEQEKRGDFLHRPFSKKLDKNLPSHKQPSPSLITQLQSTKALLKDRKASKSGFPDKDSFVCRNLFRKTSDSNCVASSSMEFIPVPPPRTPRIVKKLEPHQPGPGSASILPKEEPLLLDMVRSFESVDREDHIELLSPSHHYRILSSPVSLARRNSSERTLSQGLLSGSTSPLQTPLHSTLVSFAHEEKNSPPKEEGVCSPPPVPSNGLLQPLGSPNCVKSRGRFPMMGIGQMLRKRHQSLQPSSERSLDASMSPLQPTAPSSLSFDMADGVKGQC
As for B1, the binding entry in assay [6] and in assay [7] was “binds” throughout.

B2: endogenous MAK-V protein (CSML-0 cells) (enzyme, UniProt O88866 1-714)
chain: MPAAAGDGLLGEPAAPGGDGGAEDTTRPAAACEGSFLPAWVSGVSRERLRDFQHHKRVGNYLIGSRKLGEGSFAKVREGLHVLTGEKVAIKVIDKKRAKKDTYVTKNLRREGQIQQMIRHPNITQLLDILETENSYYLVMELCPGGNLMHKIYEKKRLDEAEARRYIRQLISAVEHLHRAGVVHRDLKIENLLLDEDNNIKLIDFGLSNCAGILGYSDPFSTQCGSPAYAAPELLARKKYGPKIDVWSIGVNMYAMLTGTLPFTVEPFSLRALYQKMVDKAMNPLPTQLSTGAVNFLRSLLEPDPVKRPNIQQALANRWLNENYTGKVPCNVTYPNRISLEDLSPSVVLHMTEKLGYKNSDVINTVLSNRACHILAIYFLLNKKLERYLSGKSDIQDSICYKTQLYQIEKCRATKEPYEASLDTWTRDFEFHAVQDKKPKEQEKRGDFLHRPFSKKLDKNLPSHKQPSPSLITQLQSTKALLKDRKASKSGFPDKDSFVCRNLFRKTSDSNCVASSSMEFIPVPPPRTPRIVKKLEPHQPGPGSASILPKEEPLLLDMVRSFESVDREDHIELLSPSHHYRILSSPVSLARRNSSERTLSQGLLSGSTSPLQTPLHSTLVSFAHEEKNSPPKEEGVCSPPPVPSNGLLQPLGSPNCVKSRGRFPMMGIGQMLRKRHQSLQPSSERSLDASMSPLQPTAPSSLSFDMADGVKGQC
On to B2, for which the binding result in assay [8] is recorded as “binds”.
